# Reference: PubChem BioAssay AID1030 (National Center for Advancing Translational Sciences (NCATS), 2008)
# Out of some 220,000 compounds screened, about 16,000 (7.3%) were called active. Inconclusive results, whose numbers are uncertain, are shown with a selection of clear calls. The call rests on the fitted dose curve; in most records, active means well fitted inhibition curve with a large enough effect (not every such curve was filed as active); inconclusive means small, poorly fitted or top-dose-only effect, or another doubt; inactive means no such curve, though single readings can be large or run the other way. Potencies of inconclusive entries are left out as doubtful fits.
# Molecular target: Aldehyde dehydrogenase 1A1 (Homo sapiens) (UniProt P00352)
# Chain of UniProt P00352 (P00352 whole entry, looked up): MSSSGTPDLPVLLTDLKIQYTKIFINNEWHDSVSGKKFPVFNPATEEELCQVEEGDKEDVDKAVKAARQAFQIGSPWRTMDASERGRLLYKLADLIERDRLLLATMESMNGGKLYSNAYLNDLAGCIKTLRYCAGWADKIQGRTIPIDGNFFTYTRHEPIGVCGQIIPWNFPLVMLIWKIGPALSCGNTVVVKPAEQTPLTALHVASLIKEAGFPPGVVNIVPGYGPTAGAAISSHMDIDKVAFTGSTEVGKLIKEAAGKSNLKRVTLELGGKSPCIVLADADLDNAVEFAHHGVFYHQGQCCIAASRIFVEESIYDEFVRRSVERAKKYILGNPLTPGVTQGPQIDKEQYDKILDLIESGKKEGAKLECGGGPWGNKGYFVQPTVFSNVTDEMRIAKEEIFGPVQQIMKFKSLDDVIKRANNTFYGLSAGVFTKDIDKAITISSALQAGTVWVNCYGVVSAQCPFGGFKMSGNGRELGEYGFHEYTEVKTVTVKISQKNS
# Test: qHTS Assay for Inhibitors of Aldehyde Dehydrogenase 1 (ALDH1A1);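 on activity, negative = inhibition: plate controls were no enzyme wells and a reference inhibitor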
# Conditions: Purified ALDH1A1, NADH fluorescence, propionaldehyde substrate; series mostly up to 75.3 µM; activity, negative = inhibition: at the top concentration
# Potency means the concentration at half of the fitted maximal effect; tags describe the fitted curve by direction and shape.
Compound,Potency,"activity, negative = inhibition"
CC1CCCN(C(=O)C2CCN(CC3CC=CCC3)CC2)C1 (configuration not stated),"inconclusive [inhibitor, single point]",–
Cc1ccc(Nc2nc(CSc3nnc(-c4ccc(F)cc4)n3C)cs2)cc1,"inconclusive [inhibitor, single point]",–
O=S(=O)(CCSc1ccccn1)c1nc2ccccc2s1,active: 0.224 µM,–
COc1ccccc1OCCCOc1c(Cl)cc(C)cc1Cl,–,inactive: -1.93%
O=C(C1CCC(CNS(=O)(=O)c2cccs2)CC1)N1CCCCC1 (configuration not stated),"inconclusive [inhibitor, partial curve]",–
Cc1cc(C)nc(SCc2csc(N)n2)n1,"inconclusive [inhibitor, partial curve, poor fit]",–
Cc1cc(C)c2c(N)c(C(=O)c3ccccc3Cl)sc2n1,"inconclusive [inhibitor, partial curve]",–
O=C(CCNC(=O)c1ccc(Br)o1)NCc1ccccc1Cl,"inconclusive [inhibitor, single point]",–
Cc1ccc(C)c(NC(=S)c2ccccn2)c1,"inconclusive [inhibitor, single point]",–
CCCNC(=S)NC1CC2CCCC(C1)N2CC(C)C (configuration not stated),"inconclusive [inhibitor, single point]",–
COc1ccccc1/C=N/NC(=O)c1nnn(-c2nonc2N)c1CSC1=NCCS1,"inconclusive [inhibitor, partial curve]",–
O=C(O)C/C=C(\NC(=O)OCc1ccccc1)C(=O)OCc1ccccc1,active: 0.282 µM,–
O=C(N/N=C/c1sc2ccccc2c1O)c1cccc2ccccc12,–,inactive: 4.21%
CCOc1ccccc1NC(=S)Nc1ccc(S(N)(=O)=O)cc1,–,inactive: -7.24%
Cc1ccc(NC(=O)C(C)Sc2nnc(-c3cccnc3)o2)cc1 (configuration not stated),–,inactive: 1.53%
COc1ccccc1N=c1oc2c(OC)cccc2cc1C(=O)NCc1ccco1,"inconclusive [inhibitor, partial curve]",–
Cn1nnnc1SCc1cc(=O)[nH]c2ccccc12,–,inactive: -5.31%
Cc1ccc(-c2nc(C#N)c(NCCCn3ccnc3)o2)cc1,"inconclusive [inhibitor, partial curve]",–
COc1ccc(-c2coc3c(OC)c(OC)cc(O)c3c2=O)cc1,"inconclusive [inhibitor, single point]",–
Clc1ccc(-c2nnc(-c3ccccc3Cl)o2)cc1,"inconclusive [inhibitor, single point]",–
OCCC1CN(C2CSCCSC2)CCN1Cc1ccccc1 (configuration not stated),"inconclusive [inhibitor, single point]",–
CC(C)Oc1ccc(/C(O)=C2/C(=O)C(=O)N(Cc3cccnc3)C2c2ccco2)cc1 (configuration not stated),–,inactive: 3.17%
CCOc1ccc2nc(COC(=O)c3cccs3)c(C(=O)c3ccccc3)[n+]([O-])c2c1,"inconclusive [inhibitor, single point]",–
CN(C1CCCCC1)S(=O)(=O)c1ccc(S(=O)(=O)N2CCCC2)cc1,"inconclusive [inhibitor, single point]",–
COC(=O)CSc1[nH]c2cc(C)ccc2c1[N+](=O)[O-],–,inactive: 7.45%
O=C(CSc1nnnn1-c1ccc(Cl)cc1)N1CCc2ccccc2C1,"inconclusive [inhibitor, partial curve]",–

Compound,Potency,"activity, negative = inhibition"
Cc1cccnc1NC(=S)NC(=O)c1cncc(Br)c1,–,inactive: 13.9%
COc1ccc(/C=N/NC(=O)c2cccnc2)cc1CSc1nc2ccccc2s1,"inconclusive [inhibitor, partial curve]",–
O=[N+]([O-])c1ccc(NCCCO)c(C(F)(F)F)c1,active: 15.8 µM,–
COc1cc(/C=N/S(=O)(=O)CCc2ccccc2)ccc1O,active: 28.2 µM,–
O=C(Cc1ccc(Br)cc1)NC1CCSC1=O (configuration not stated),–,inactive: 1.54%
Cc1ccc(C(=O)/C=C/c2ccc(-c3ccc(C)cc3)o2)cc1,active: 0.708 µM,–
CCOCCCNC(=O)CCSc1ccc(C)cc1,–,inactive: 8.2%
O=C(C[n+]1cccc(O)c1)Nc1ccc(Br)cc1,–,inactive: -3.92%
O=C(C[n+]1cn(C(F)F)c2ccccc21)c1ccc(Br)cc1,active: 8.91 µM,–
COc1ccc(NC(=O)C2CCCN(S(=O)(=O)c3cccnc3)C2)cc1 (configuration not stated),–,inactive: 0.442%
COCCn1c(=O)c(-c2cc(F)cc(F)c2)nc2cnc(Oc3ccccc3)nc21,"inconclusive [inhibitor, single point]",–
CCc1nnc(NC(=O)c2cc(-c3ccco3)nc3ccccc23)s1,"inconclusive [inhibitor, partial curve]",–
CNCCCCOc1ccc(C(C)(C)C)cc1Cl,–,inactive: -6.96%
CCN(CC)S(=O)(=O)c1ccc2c(c1)nc(SC(C)C(N)=O)n2-c1ccc(OC)cc1 (configuration not stated),active: 15.8 µM,–
Cc1ccc(/C=c2/sc3n(c2=O)CCCN=3)o1,active: 3.55 µM,–
CCCn1c(N)c(Sc2ccccc2)c(=O)n(CCC)c1=O,"inconclusive [inhibitor, single point]",–
COC(=O)N/N=C(\C)c1ccc(C)c([N+](=O)[O-])c1,"inconclusive [inhibitor, single point]",–
C(=C\CSc1nnnn1-c1ccccc1)/CSc1nnnn1-c1ccccc1,active: 0.1 µM,–
Cc1cc(=O)oc2cc(NC(=O)c3cc4ccccc4o3)ccc12,"inconclusive [inhibitor, partial curve]",–
CCNc1ccc(Br)cc(C(=O)/C=C/c2ccc3c(c2)OCO3)c1=O,active: 17.8 µM,–
O=c1c2ccccc2[nH]c(=S)n1Cc1ccc2c(c1)OCO2,–,inactive: 4.32%
C=C[C@@H](C)[C@](C)(O)c1ccccc1,–,inactive: -0.205%
CCN(C(=O)COC(=O)c1cc(-c2cccs2)nc2ccccc12)C1CCS(=O)(=O)C1 (configuration not stated),"inconclusive [inhibitor, single point]",–
COc1ccc(C(=O)c2ccc(O)cc2)c(O)c1O,"inconclusive [inhibitor, single point]",–
COc1ccc(CC(=O)N2CCOCC2)cc1,–,inactive: 1.15%
COC(=O)c1[nH]c2ccc(C)cc2c1NC(=O)CCN1CCN(C2CCCCC2)CC1,"inconclusive [inhibitor, single point]",–
